Assay results published in publication PMC4336329 (PLoS ONE, 2015).
Hit rate of the full screen: of about 310,000 compounds, about 14,000 (4.5%) showed an effect of 50% or more. The effect is printed as a negative number. This is one part of the list.

Each compound was assayed against human ether-à-go-go-related gene (hERG) potassium channel (human, UniProt Q12809) (assay: primary screen, population patch clamp on CHO cells stably expressing hERG).
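Note: peak tail current of the secondary pulse compared with the same well before compound.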

Sequence of human ether-à-go-go-related gene (hERG) potassium channel (Q12809 whole entry, looked up): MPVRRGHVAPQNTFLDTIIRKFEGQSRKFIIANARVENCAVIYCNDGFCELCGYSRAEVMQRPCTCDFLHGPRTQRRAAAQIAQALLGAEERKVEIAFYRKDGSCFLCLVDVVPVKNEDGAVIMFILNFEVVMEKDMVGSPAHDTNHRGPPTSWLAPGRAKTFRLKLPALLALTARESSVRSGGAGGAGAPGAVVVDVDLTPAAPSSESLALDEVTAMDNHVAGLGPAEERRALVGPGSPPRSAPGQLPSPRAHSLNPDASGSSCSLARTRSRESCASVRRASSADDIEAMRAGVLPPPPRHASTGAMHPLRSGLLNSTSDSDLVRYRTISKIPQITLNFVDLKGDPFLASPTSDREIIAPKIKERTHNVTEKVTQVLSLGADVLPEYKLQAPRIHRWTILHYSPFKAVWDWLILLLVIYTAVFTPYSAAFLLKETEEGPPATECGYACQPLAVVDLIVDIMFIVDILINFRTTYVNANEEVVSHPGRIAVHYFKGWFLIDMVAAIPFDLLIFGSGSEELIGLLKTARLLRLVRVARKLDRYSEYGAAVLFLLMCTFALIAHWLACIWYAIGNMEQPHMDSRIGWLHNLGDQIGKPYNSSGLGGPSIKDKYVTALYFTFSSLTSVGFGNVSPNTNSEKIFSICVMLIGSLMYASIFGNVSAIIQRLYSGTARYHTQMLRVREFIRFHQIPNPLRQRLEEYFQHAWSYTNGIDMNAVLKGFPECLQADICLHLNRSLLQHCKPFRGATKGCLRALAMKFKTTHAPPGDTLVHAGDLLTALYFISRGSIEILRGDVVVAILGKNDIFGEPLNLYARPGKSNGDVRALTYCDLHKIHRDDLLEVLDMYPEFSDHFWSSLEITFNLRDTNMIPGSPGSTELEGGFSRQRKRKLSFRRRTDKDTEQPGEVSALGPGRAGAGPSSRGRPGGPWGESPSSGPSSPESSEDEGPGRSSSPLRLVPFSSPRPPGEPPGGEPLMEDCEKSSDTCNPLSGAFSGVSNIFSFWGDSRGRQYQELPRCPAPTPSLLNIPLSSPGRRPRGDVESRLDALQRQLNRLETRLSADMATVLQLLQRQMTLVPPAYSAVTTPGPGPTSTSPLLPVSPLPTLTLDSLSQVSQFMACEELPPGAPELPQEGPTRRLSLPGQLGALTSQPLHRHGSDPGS

| Structure (SMILES) | hERG current change (%, negative = inhibition) at 10uM [%] |
| --- | --- |
| O=C(NCc1ccccc1)c1ccc2c(c1)C(=O)N(CC1CCCO1)C2=O (centres unmarked) | -33.5 |
| Cc1cc(C)c2oc(=O)cc(CN3CCCCC3)c2c1 | 21.1 |
| CCCCCn1c(N)c(C(=O)NCCN2CCOCC2)c2nc3ccccc3nc21 | -17.1 |
| Fc1ccc(Nc2nc(Oc3ccc4c(c3)OCO4)nc(N3CCOCC3)n2)c(F)c1 | 25.9 |
| CCCNC(=O)/C(C#N)=C1\N=C(NC(=O)c2ccco2)c2ccccc21 | -44.6 |
| CCNc1nc2c(c(=O)[nH]c(=O)n2C)n1Cc1ccc(F)cc1 | -2.72 |
| CC(=O)C1=C(C)Nc2ncnn2C1c1cccc(OCc2ccccc2)c1 (centres unmarked) | 1.29 |
| COc1ccccc1C(=O)COC(=O)Cc1c[nH]c2ccccc12 | -27.1 |
| COc1cc(/C=C/C(=O)OC(C)C(=O)NC2CCCCC2C)cc(Cl)c1OC (centres unmarked) | 13.8 |
| CC(=O)N1[C@H](Cc2ccccc2)C=C[C@]1(C)C(=O)NCc1ccc(C)o1 | 5 |
| O=C(COC(=O)c1ccc(Br)cc1)NCCc1ccccc1 | 8.99 |
| COCCN(C(=O)COC(=O)C1(C)CC1(Cl)Cl)c1c(N)n(Cc2ccccc2)c(=O)[nH]c1=O (centres unmarked) | 24.9 |
| COc1ccc(NC(=O)CSc2nnc3n2CCCCC3)cc1S(=O)(=O)N1CCOCC1 | -8.46 |
| CN(C)c1ccc(/C=N/N(CCC(=O)NC(C)(C)C)C2=NS(=O)(=O)c3ccccc32)cc1 | 16.5 |
| COC(CN(C(=O)CCl)C(C(=O)NC1CCCCC1)c1ccc(C)cc1)OC (centres unmarked) | -3.26 |
| O=C(c1ccncc1)N1CCN(c2ccc(F)cc2)CC1 | -7.77 |
| Cn1c(=O)c2[nH]c(Nc3ccccc3)nc2n(C)c1=O | -12.1 |
| Cc1ccc(S(=O)(=O)N(CC(=O)NCc2ccco2)C2CCCCC2)cc1 | -24.4 |
| CC(C)OCC(O)CN1CCC(Cc2ccccc2)CC1.Cl (centres unmarked) | -56.9 |
| Cc1nc2ccc(Nc3nc4cc(S(=O)(=O)N5CCOCC5)ccc4o3)cc2s1 | 3.42 |
| COC(=O)c1ccc(NC(=O)CN2C(=O)CC(C)S(=O)(=O)c3ccccc32)cc1 (centres unmarked) | 5.54 |
| Cc1cc(Cl)ccc1NC(=S)NCCCN1CCCC1=O | 7.99 |

| Structure (SMILES) | hERG current change (%, negative = inhibition) at 10uM [%] |
| --- | --- |
| Cc1ccc(S(=O)(=O)c2ccc(Cl)cc2)cc1S(=O)(=O)NC(C)C(=O)O (centres unmarked) | 14.7 |
| COc1ccc(OC)c(S(=O)(=O)NCCO)c1 | 8.08 |
| NC(=O)CSc1ncc(-c2ccc([N+](=O)[O-])cc2)[nH]1 | -14.6 |
| O=C1CCCCC1C(O)c1ccc(Cl)cc1 (centres unmarked) | 2.85 |
| CC(C)N(C(=O)Cn1cc(S(=O)(=O)CC(=O)NCc2ccccc2)c2ccccc21)C(C)C | -22.4 |
| CCOC(=O)Cn1nc(/C=C/c2ccccc2)ccc1=O | -8.37 |
| O=C(NC(=S)Nc1ccc(Cl)cn1)C(c1ccccc1)c1ccccc1 | -4.15 |
| COc1ccc(S(=O)(=O)N2CCCCC2)cc1NC(=O)c1ccc(N2CCCC2=O)cc1 | -18.4 |
| CSc1nc2c(cnn2-c2ccc(C)c(C)c2)c(=O)[nH]1 | 14.1 |
| Brc1ccc(-c2noc(-c3ccccc3)n2)o1 | 10.9 |
| COc1cc(/C=N/n2nnnc2N)cc(OC)c1OC | -0.774 |
| COc1ccc(CCNc2ncnc3c2c(C)c(C)n3CCCN(C)C)cc1OC | -39.9 |
| COc1cccc(N2CCN(c3ccc4nnc(CCC(=O)Nc5ccccn5)n4n3)CC2)c1 | -42.2 |
| O=C(c1ccco1)N1CCN(C(=S)Nc2cccc([N+](=O)[O-])c2)CC1 | -63.3 |
| CCN(CC)C(=O)CSc1nnc(-c2cc3ccccc3cc2O)n1CC | -29.8 |
| COC(=O)c1c(C)oc2ccc(NS(=O)(=O)c3cc(OC)ccc3OC)cc12 | 19.5 |
| CCc1ccc(C(=O)CCC(=O)Nc2ccc(OC)c(S(=O)(=O)N3CCCCC3)c2)cc1 | -20.7 |
| C/C(=N\NC(=O)c1cc(-c2cccs2)nc2ccccc12)c1ccccn1 | 12.1 |
| O=C(Cc1ccccc1)Nc1nnc(-c2ccco2)o1 | 10.7 |
| Cc1ccc(NC(=O)CNC(=O)COc2ccccc2)nc1 | 4.91 |
| C#C[C@@]1(O)CCC2C3CCC4=C/C(=N/OCC(=O)NC(CCC(N)=O)C(=O)O)CC[C@]4(C)C3CC[C@@]21C (some centres unmarked) | 18.2 |
| CCN(CC)CP(=O)(c1ccccc1)c1ccccc1 | 4.9 |
